The list shows a part of the results. These are noisy estimates, calculated here from bound and input reads.

The assay addresses T1, Pho4 (S. cerevisiae) (UniProt P07270).
T1 sequence: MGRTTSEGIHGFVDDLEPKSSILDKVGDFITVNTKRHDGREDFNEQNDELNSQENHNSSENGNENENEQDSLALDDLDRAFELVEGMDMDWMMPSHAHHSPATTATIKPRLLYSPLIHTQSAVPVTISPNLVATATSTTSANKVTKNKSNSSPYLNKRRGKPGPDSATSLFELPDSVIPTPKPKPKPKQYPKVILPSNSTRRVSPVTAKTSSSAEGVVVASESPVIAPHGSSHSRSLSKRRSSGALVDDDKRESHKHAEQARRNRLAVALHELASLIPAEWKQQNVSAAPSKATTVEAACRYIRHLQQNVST
Nature of the assay: relative binding free energy (BET-seq); higher = weaker binding. The note with it: reference: library average.
GGAAGCACGTGGCTGT: the “relative binding free energy” value is -0.2 kcal/mol.
As to CGATTCACGTGTGGGT, the “relative binding free energy” value is 0.38 kcal/mol.
Next, TGCATCACGTGTTGCT: 0.22 kcal/mol; TGGTACACGTGAATGT: 0.23 kcal/mol.
In the case of ATATACACGTGGGATG it was -0.26 kcal/mol; in that of AGGGTCACGTGAAGGC, 0.12 kcal/mol.
In the case of GAAGCCACGTGGGATG it was 0.01 kcal/mol; in that of GGCAGCACGTGAAGTT, 0.23 kcal/mol.
Take TATGTCACGTGTTGGT: the “relative binding free energy” value was determined as 0.09 kcal/mol.
With GGGGTCACGTGCGACT, the “relative binding free energy” value amounted to 0.08 kcal/mol.
In the case of GGATACACGTGGATGT it was -0.08 kcal/mol; in that of TCAAGCACGTGTTGTG, -0.16 kcal/mol; in that of CTTTACACGTGGTATG, -0.13 kcal/mol.
As for AAAGCCACGTGGGTTG, the “relative binding free energy” value was -0.26 kcal/mol.
Next, TGCAGCACGTGGCAGG: -0.13 kcal/mol; AGGAGCACGTGGGCTG: -0.11 kcal/mol.
With TGTGACACGTGTACTT, the “relative binding free energy” value stood at 0.11 kcal/mol.
For the sequence CCGGCCACGTGGTTGG, the “relative binding free energy” value was -0.07 kcal/mol.
On to TTAGTCACGTGAGTTA, for which the “relative binding free energy” value stood at 0.41 kcal/mol.
In the case of ATATGCACGTGAGTAT it was 0.19 kcal/mol.
Consider TTTATCACGTGTCAAT, for which the “relative binding free energy” value stood at 0.1 kcal/mol.
On to GTAGGCACGTGGGTAA, for which the “relative binding free energy” value is -0.27 kcal/mol.
Next, TAGGTCACGTGAGCTG: 0.2 kcal/mol; AAGGGCACGTGGCGTG: -0.16 kcal/mol.
Next, TCCGGCACGTGATGGG: 0.16 kcal/mol.
Next, GTGGTCACGTGGTGGT: 0.17 kcal/mol.
Regarding GTGGGCACGTGCTATT, the “relative binding free energy” value came out at 0.05 kcal/mol.
Turning to GGGGACACGTGCAGGA, the “relative binding free energy” value was 0.13 kcal/mol.
Take TTGATCACGTGGGGTG: the “relative binding free energy” value came to 0.05 kcal/mol.
On to TGGTACACGTGCGGAT, for which the “relative binding free energy” value was -0.05 kcal/mol.
In the case of TGAGACACGTGGGTTG it was -0.13 kcal/mol.
GGGCGCACGTGAGTTG: the “relative binding free energy” value was found to be 0.29 kcal/mol.
In the case of TTTTTCACGTGCGATA it was 0.11 kcal/mol; in that of GTGGTCACGTGTTGAA, 0.08 kcal/mol.
Next, TGAGTCACGTGTCAGG: 0.11 kcal/mol; GTTTGCACGTGCCTTT: -0.03 kcal/mol; GTCGACACGTGTGTGG: 0.04 kcal/mol.
As for TTCATCACGTGGTGCG, the “relative binding free energy” value worked out at 0 kcal/mol.
For the sequence TGTTTCACGTGAGCTT, the “relative binding free energy” value was 0.4 kcal/mol.
In the case of AAGCTCACGTGGTTGT it was 0.29 kcal/mol; in that of TGGCGCACGTGCTGTA, -0.2 kcal/mol; in that of TTTATCACGTGTGGCC, 0.21 kcal/mol.
With TGACGCACGTGGTTGG, the “relative binding free energy” value is -0.21 kcal/mol.
In the case of CGGGTCACGTGTGATC it was 0.47 kcal/mol; in that of TGGGCCACGTGTTTAA, 0.03 kcal/mol.
For TGGAACACGTGTGTTC, the “relative binding free energy” value turned out to be 0.09 kcal/mol.
For GGTGTCACGTGAACGT, the “relative binding free energy” value came out at 0.22 kcal/mol.
In the case of CGTGCCACGTGGTTAG it was -0.19 kcal/mol.
Take GGGGTCACGTGGGTCC: the “relative binding free energy” value came to 0.03 kcal/mol.
In the case of GATGACACGTGGTTAG it was -0.03 kcal/mol; in that of GATGGCACGTGTTGTG, 0 kcal/mol; in that of GCGCGCACGTGTGGGT, -0.16 kcal/mol.
In the case of TATGTCACGTGTAAAT it was 0.23 kcal/mol; in that of CGACTCACGTGTGGGA, 0.29 kcal/mol; in that of ATATACACGTGGTTGA, -0.08 kcal/mol.
Next, TAGGGCACGTGTATTG: -0.09 kcal/mol; CGATGCACGTGGGGGG: -0.13 kcal/mol.
In the case of GTGTGCACGTGCGATT, the “relative binding free energy” value is -0.09 kcal/mol.
With TCGGTCACGTGTGCTT, the “relative binding free energy” value was 0.1 kcal/mol.
Next, TGATGCACGTGAAATT: 0.32 kcal/mol; TCGAGCACGTGTGGTT: 0.11 kcal/mol.
As to TTCATCACGTGTGATT, the “relative binding free energy” value was 0.2 kcal/mol.
Next, TGGCGCACGTGGGGGG: -0.23 kcal/mol.
In the case of GCATTCACGTGGTAGA it was 0.31 kcal/mol; in that of TTGCACACGTGGAAGG, 0.06 kcal/mol; in that of GGGAACACGTGGGTAG, -0.06 kcal/mol.
With GTTGGCACGTGACGAT, the “relative binding free energy” value is 0.07 kcal/mol.
With ATTGACACGTGTGCTT, the “relative binding free energy” value is -0.03 kcal/mol.
In the case of ACTTGCACGTGTTGTA it was -0.05 kcal/mol.
In the case of TCTGTCACGTGCATGT it was 0.04 kcal/mol; in that of ATTTGCACGTGTTAGA, 0.09 kcal/mol.
Next, CGGAGCACGTGAGGTA: 0.19 kcal/mol; TTTGTCACGTGTATAG: 0.13 kcal/mol.
For TAGATCACGTGTGGGG, the “relative binding free energy” value was found to be 0.22 kcal/mol.
In the case of TAGAACACGTGGGTAA it was 0.02 kcal/mol.
Next, TGTCTCACGTGGGGCA: -0.01 kcal/mol; TAGTTCACGTGTAGTC: 0.12 kcal/mol; TTTGACACGTGTTTGG: 0.05 kcal/mol.
Consider GGCGTCACGTGTTAAG, for which the “relative binding free energy” value was 0.14 kcal/mol.
Take TATAGCACGTGTGAGC: the “relative binding free energy” value stood at 0 kcal/mol.
As for TAATTCACGTGTGATG, the “relative binding free energy” value amounted to 0.28 kcal/mol.
In the case of AGGTGCACGTGGGCGT it was -0.26 kcal/mol; in that of GAGGCCACGTGGGGGT, -0.13 kcal/mol; in that of TTTTCCACGTGATAGG, 0.09 kcal/mol.
In the case of GTCGTCACGTGGGATG it was 0.14 kcal/mol.
As for GAGGGCACGTGGGTCC, the “relative binding free energy” value was -0.18 kcal/mol.
For AGGGACACGTGTGGCA, the “relative binding free energy” value came out at 0.08 kcal/mol.
In the case of ATGGTCACGTGTAAGC it was 0.17 kcal/mol.
In the case of TAAAACACGTGAGGGT it was 0.22 kcal/mol; in that of GTGTACACGTGGCTTA, 0.04 kcal/mol.
Next, ATAGTCACGTGTATTG: -0.02 kcal/mol.
AAGTGCACGTGTTGGG: the “relative binding free energy” value was -0.04 kcal/mol.
Regarding TGTTTCACGTGTCCTT, the “relative binding free energy” value is 0.14 kcal/mol.
Next, GCCTGCACGTGGGGGC: -0.06 kcal/mol; CGGGTCACGTGGTTTT: 0.16 kcal/mol; CTTTCCACGTGTTGTT: -0.03 kcal/mol.
In the case of AGAGTCACGTGGGAGA it was 0.1 kcal/mol.
Next, CTTTTCACGTGGCTGG: 0.12 kcal/mol; ATTTTCACGTGTTTGC: 0.3 kcal/mol; GAGGGCACGTGCGTTG: -0.17 kcal/mol.
For GGTGTCACGTGTATAT, the “relative binding free energy” value came out at 0.09 kcal/mol.
Next, GTTATCACGTGAGGAA: 0.39 kcal/mol.
Take GGTGTCACGTGGAAGA: the “relative binding free energy” value amounted to 0.26 kcal/mol.
Take ATTGTCACGTGAGAGT: the “relative binding free energy” value is 0.29 kcal/mol.
For CGTGACACGTGGGGGC, the “relative binding free energy” value was -0.15 kcal/mol.
For GGGATCACGTGAAAGT, the “relative binding free energy” value was 0.37 kcal/mol.
Next, GGTGGCACGTGGTGTA: -0.07 kcal/mol.
Next, CTGTTCACGTGGTCAG: 0.12 kcal/mol; TGGGGCACGTGAGTGG: 0.16 kcal/mol; GTTTACACGTGTAATT: 0.29 kcal/mol.
For GTTGCCACGTGATGGA, the “relative binding free energy” value worked out at 0.12 kcal/mol.
As to TTGTGCACGTGTTCAG, the “relative binding free energy” value was -0.13 kcal/mol.
In the case of GGGATCACGTGGCGCG it was 0.09 kcal/mol; in that of GTGTGCACGTGGCTCG, -0.08 kcal/mol; in that of GTATTCACGTGTGATG, 0.34 kcal/mol.

The values are drawn from the BET-seq Pho4 binding data (Le et al. 2018).
